Results published in PubChem BioAssay AID686978 (National Center for Advancing Translational Sciences (NCATS), 2013).
Out of some 420,000 compounds screened, about 64,000 (15%) were called active. The shares of active, inactive and inconclusive entries below differ from those in the screen. Calls come from the whole dose curve; as a rule, active = well fitted inhibition curve with a large enough effect; inconclusive = small, poorly fitted or top-dose-only effect; inactive = flat fitted curve, though single readings scatter. Potencies of inconclusive entries are left out as doubtful fits.
% is set by controls: 0 for no effect and ±100 for the full control effect; potency is the fitted concentration of half-maximal effect; tags give direction and shape of the fitted curve.

Test: qHTS for Inhibitors of human tyrosyl-DNA phosphodiesterase 1 (TDP1): qHTS in cells in absence of CPT; note: nearly all actives have a fitted effect of over 55% in size
Settings: DT40 Tdp1-/- hTDP1 cells, no CPT, ATP luminescence, 48 h; activity change, negative = growth inhibition: at 46.2 µM (top of the series) unless noted
Procedure, shortened: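 Luminescent ATP content (CellTiter-Glo) served as the growth readout. Knockout chicken DT40 cells expressing human TDP1 were exposed to compounds without camptothecin for a minimum 48 hr at 37 °C.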
With `O=C(O)c1cccc(CSc2nnc(-c3ccc(Cl)cc3)o2)c1` the “activity change, negative = growth inhibition” value was inactive: -15.6%.
With `CCOc1ccc(CN2CCc3nc(N4CCN(c5ccccn5)CC4)ncc3C2)cc1OC` the Potency was active: 23.1 µM.
With `O=C1CSC(c2cccc(O)c2)N1Cc1ccccc1` (stereo not drawn) the Potency was inconclusive [inhibitor, single point].
In the case of `Cc1ccc(C(C(=O)NCC2CCCO2)N(C(=O)c2snc(C(N)=O)c2N)c2ccccc2F)o1` (stereo not drawn), the Potency is reported as inconclusive [inhibitor, partial curve, poor fit].
In the case of `Cc1ccccc1-c1cc2nccc(-c3cc(Cl)ccc3O)n2n1`, the activity change, negative = growth inhibition is reported as inconclusive: -32.9% [inhibitor].
In the case of `Cc1ccc(C(=O)c2cn(Cc3ccccc3C)c3nc(C)ccc3c2=O)cc1`, the Potency is reported as active: 20.6 µM.
For `O=C(O)C(c1ccccc1)C1(O)CCCCC1` (stereo not drawn), the “activity change, negative = growth inhibition” value was inactive: -7.94%.
In the case of `CC(C)(C)c1ccc(NC(=O)NC2CCCc3ccccc32)cc1` (stereo not drawn), the Potency is reported as inconclusive [inhibitor, single point].
For `O=C(CCC1N=C2c3ccccc3N=C(SCc3ccccc3Cl)N2C1=O)NCc1ccco1` (stereo not drawn), the Potency was active: 18.4 µM.
For `Cc1ccc(Cn2ccc(=O)c(OCc3ccccc3)c2C)cc1`, the Potency was inconclusive [inhibitor, single point].
With `CCN(CC)CCOC(=O)c1c(C)n(C)c2ccc(OC)cc12` the “activity change, negative = growth inhibition” value was inactive: -4.64%.
In the case of `COc1ccc(-c2cn3c(n2)sc2cc(C(=O)NCc4cccc(F)c4)ccc23)cc1`, the Potency is reported as inconclusive [inhibitor, single point].
With `CCOC(=O)N1CCC(NC(=O)C2CCCCN2S(=O)(=O)c2ccc(F)cc2)CC1` (stereo not drawn) the Potency was inconclusive [inhibitor, single point].
In the case of `Cc1cccc(NC(=O)c2cc3c(s2)-c2c(C)cccc2OC3)n1`, the Potency is reported as inconclusive [inhibitor, single point].
For `CC(C(=O)Nc1ccc(Cl)cc1)N(C)Cc1cccs1` (stereo not drawn), the Potency was inconclusive [inhibitor, single point].
With `CCN(CC)c1ccc(NC(=O)CN2CCN(c3ccc(F)cc3)CC2)cc1` the Potency was inconclusive [inhibitor, single point].
In the case of `Cc1ccc(NS(=O)(=O)c2cccc(C(=O)NCc3ccccn3)c2)cc1`, the Potency is reported as inconclusive [inhibitor, partial curve, poor fit].
In the case of `CCN(CC(=O)Nc1c(F)cccc1F)C(=O)c1ccc(S(=O)(=O)N(CC)c2ccccc2)cc1`, the Potency is reported as inconclusive [inhibitor, single point].
In the case of `COc1cccc(C(=O)OCC(=O)Nc2nnc(-c3ccccc3)o2)c1`, the Potency is reported as inconclusive [inhibitor, single point].
For `Cc1oc2c(cc(NS(=O)(=O)c3ccc(Cl)cc3)c3ccccc32)c1C(=O)OCc1ccccc1`, the Potency was inconclusive [inhibitor, single point].
With `CCCc1cnc2c(c1SCc1cccc(F)c1)c(=O)n(C)c(=O)n2C` the Potency was inconclusive [inhibitor, single point].
For `CCOC(=O)C1Oc2ccccc2C(c2cccc3ccccc23)=C1C(=O)OC` (stereo not drawn), the Potency was inconclusive [inhibitor, single point].
For `COc1cc(CN2CCCCCC2)cc([N+](=O)[O-])c1O`, the “activity change, negative = growth inhibition” value was inactive: 15.1%.
In the case of `COc1ccc2sc3ccccc3c(=O)c2c1OC`, the activity change, negative = growth inhibition is reported as inconclusive: -34.5% [inhibitor].
With `Cc1ccccc1-c1nc(CS(=O)(=O)CC(=O)N2CCN(C)CC2)c(C)o1` the “activity change, negative = growth inhibition” value was inactive: 4.33%.
For `O=C1NN(c2ccccc2)C(=O)/C1=C\c1ccc2c(c1)OCO2`, the “activity change, negative = growth inhibition” value was inactive: -19.7%.
For `O=C(CSc1ccc(Cl)cc1)OCC(=O)N1CCN(c2ccccc2)CC1`, the “activity change, negative = growth inhibition” value was inactive: -19.1%.
For `COc1ccc(CNC(=O)CN(C(=O)CCC(=O)Nc2nccs2)c2cccc(C)c2)cc1`, the Potency was inconclusive [inhibitor, single point].
In the case of `NS(=O)(=O)c1cccc(NS(=O)(=O)c2ccc3ccccc3c2)c1`, the “activity change, negative = growth inhibition” value is reported as inactive: -11.3%.
For `COc1ccc(C(CNC(=O)c2ccc(NS(=O)(=O)c3ccc(F)c(C)c3)cc2)N2CCCC2)cc1` (stereo not drawn), the Potency was inconclusive [inhibitor, single point].
For `O=C(Nc1ccc(Sc2ccc(Br)cc2)cc1)c1ccco1`, the Potency was inconclusive [inhibitor, single point].
In the case of `O=C(CCl)N(c1ccccc1)C1CCS(=O)(=O)C1` (stereo not drawn), the Potency is reported as active: 8.2 µM.
For `COC(=O)c1sc(-c2ccc(C(C)(C)C)cc2)cc1NC(=O)c1ccccc1C(=O)O`, the Potency was inconclusive [inhibitor, single point].
In the case of `CN(C(=O)COC(=O)c1nc(Cl)ccc1Cl)C1CCS(=O)(=O)C1` (stereo not drawn), the “activity change, negative = growth inhibition” value is reported as inactive: 8.66%.
For `CCOC1=C2[C@@H](CN(S(=O)(=O)c3ccccc3C)[C@H]2c2ccc(Cl)cc2)[C@H]2C(=O)N(C3CCCCC3)C(=O)[C@H]2C1`, the Potency was inconclusive [inhibitor, single point].
For `CCc1cccc(C)c1NC(=O)COC(=O)CSCc1ccccc1`, the “activity change, negative = growth inhibition” value was inactive: 4.21%.
In the case of `Cc1ccccc1OCCC(=O)N(CC(=O)Nc1ccccc1C(F)(F)F)Cc1ccco1`, the “activity change, negative = growth inhibition” value is reported as inactive: -16.9%.
For `COc1ccc(OC)c(C(=O)COC(=O)c2c(OC)cccc2OC)c1`, the Potency was inconclusive [inhibitor, partial curve, poor fit].
In the case of `Cc1noc(C)c1-c1nccc(NCc2ccccc2)n1`, the Potency is reported as inconclusive [inhibitor, partial curve, poor fit].
For `O=S(=O)(Nc1cccc(-c2cn3ccsc3n2)c1)c1ccc(F)cc1`, the Potency was inconclusive [inhibitor, partial curve].
With `COc1ccc(NC(=O)c2ccc(OC(=S)N(C)c3ccc(OC)cc3)cc2)cc1` the Potency was inconclusive [inhibitor, partial curve, poor fit].
In the case of `CNS(=O)(=O)c1cc(-c2nnc(Nc3ccc(CC(N)=O)cc3)c3ccccc23)ccc1C`, the “activity change, negative = growth inhibition” value is reported as inactive: 11.2%.
With `C[C@H]1CN([C@@H](C)CO)C(=O)CCCn2nncc2CO[C@H]1CN(C)C(=O)c1ccccc1` the activity change, negative = growth inhibition was inconclusive: 4.16% [inhibitor].
For `Cc1ccc(NC(=O)CN2C(=O)COc3ccc(S(=O)(=O)NC4CCCC4)cc32)c(Cl)c1`, the Potency was inconclusive [inhibitor, single point].
For `Cc1nc(C)c(C(=O)C2=C(O)C(=O)N(CCN(C)C)C2c2ccco2)s1` (stereo not drawn), the “activity change, negative = growth inhibition” value was inactive: 2.98%.
For `O=[N+]([O-])c1cccc(Cl)c1CSc1ccccn1`, the “activity change, negative = growth inhibition” value was inactive: -7.01%.
With `CC(=O)c1sc2ccccc2c1OC(=O)c1ccco1` the Potency was inconclusive [inhibitor, single point].
In the case of `Cc1cccc(C)c1NC(=O)C(c1ccccc1)n1c(=O)c(-c2cc3ccccc3[nH]2)nc2ccccc21` (stereo not drawn), the Potency is reported as active: 14.6 µM.
With `CC(=O)N(Cc1cccc(Br)c1)c1ccc(N2CCOCC2)c(Cl)c1` the Potency was inconclusive [inhibitor, single point].
In the case of `CC(C)NC(=O)Nc1ccc(Br)cc1Cl`, the “activity change, negative = growth inhibition” value is reported as inactive: -18.5%.
With `Cc1ccc([N+](=O)[O-])cc1NC1OC(CO)C(O)C1O` (stereo not drawn) the “activity change, negative = growth inhibition” value was inactive: 0.976%.
In the case of `CC(=O)c1cccc(NC(=O)CCc2nnc3ccc(NCc4ccco4)nn23)c1`, the “activity change, negative = growth inhibition” value is reported as inactive: -17.6%.
In the case of `O=C(CN1CCN(C(=O)c2ccco2)CC1)Nc1c2c(nc3c1CCC3)CCCC2`, the “activity change, negative = growth inhibition” value is reported as inactive: -29.2%.
In the case of `CS(=O)(=O)c1ccc(NC(=O)c2cccc(S(=O)(=O)N3CCN(Cc4ccccc4)CC3)c2)cc1`, the Potency is reported as inconclusive [inhibitor, single point].
For `Cc1ccc(S(=O)(=O)N2CCN(Cc3cc(C(C)(C)C)ccc3O)CC2)cc1`, the “activity change, negative = growth inhibition” value was inactive: -24.3%.
With `Cc1cc(C)n(C(=O)CCCCCCCCC(=O)n2nc(C)cc2C)n1` the “activity change, negative = growth inhibition” value was inactive: -8.46%.
For `Cc1cc(C(=O)NCCC2=CCCCC2)c(C)o1`, the Potency was active: 18.4 µM.
For `CC(C)Oc1cccc(C(=O)C2CCCN(Cc3cnc(N4CCOCC4)s3)C2)c1` (stereo not drawn), the Potency was inconclusive [inhibitor, single point].
For `Cc1ccc(C)c(N2CCN(C(=O)c3cc(S(=O)(=O)N4CCOCC4)ccc3F)CC2)c1`, the Potency was active: 13 µM.
With `CCc1ccc(Nc2nnc(-n3nc(C)cc3C)c3ccccc23)cc1` the Potency was inconclusive [inhibitor, single point].
For `CC(C)CNC(=O)/C(C#N)=C1\N=C(NC(=O)c2ccco2)c2ccccc21`, the Potency was inconclusive [inhibitor, partial curve].
In the case of `c1cc(-c2cc3nc(NCC4CC4)ccn3n2)ccc1OCCN1CCOCC1`, the Potency is reported as active: 23.1 µM.
With `CC(C)c1c(O)ccc2c1CC[C@H]1C(C)(C)CCC[C@]21C` the Potency was inconclusive [inhibitor, single point].
In the case of `CCOC(=O)c1nc(NCc2ccccc2C)c2ccccc2n1`, the Potency is reported as inconclusive [inhibitor, single point].
With `Cc1cccc(CSC2=NN3CCCC(=O)N=C3S2)c1` the Potency was inconclusive [inhibitor, single point].
With `Cc1cccc(NC(=O)CNc2cc(C)ccc2C)c1` the Potency was inconclusive [inhibitor, partial curve].
For `CCCCNC(=O)CSc1nc2cc3c(cc2c(=O)n1CCCCCC(=O)NCc1ccc(OC)cc1)OCO3`, the “activity change, negative = growth inhibition” value was inactive: -5.91%.
With `COc1cc(C(O)CO)ccc1OS(=O)(=O)O` (stereo not drawn) the “activity change, negative = growth inhibition” value was inactive: -12.9%.
In the case of `O=C1CCSC2=C1SCc1sccc12`, the “activity change, negative = growth inhibition” value is reported as inactive: -1.18%.
For `O=C(N/N=C/c1ccccn1)C12CC3CC(CC(C3)C1)C2`, the “activity change, negative = growth inhibition” value was inactive: -2.56%.
With `CCOc1ccc(S(=O)(=O)N(C)c2ccc(OCC(=O)NCc3ccco3)cc2)cc1` the Potency was inconclusive [inhibitor, partial curve, poor fit].
For `O=C(CSc1ncccn1)NC(=O)c1ccccc1`, the “activity change, negative = growth inhibition” value was inactive: 6.25%.
With `COc1ccc(CNC(=O)Cc2csc3nc(-c4ccc(F)cc4)cn23)cc1` the Potency was inconclusive [inhibitor, single point].
